Over roughly 33,000 sequences, “E-score (-0.5 to 0.5)” has its median near -0.036; the highest 2% begin near 0.37. The list shows a part of the results.
Target: T1, Yer064c (UniProt P40041)
T1 sequence: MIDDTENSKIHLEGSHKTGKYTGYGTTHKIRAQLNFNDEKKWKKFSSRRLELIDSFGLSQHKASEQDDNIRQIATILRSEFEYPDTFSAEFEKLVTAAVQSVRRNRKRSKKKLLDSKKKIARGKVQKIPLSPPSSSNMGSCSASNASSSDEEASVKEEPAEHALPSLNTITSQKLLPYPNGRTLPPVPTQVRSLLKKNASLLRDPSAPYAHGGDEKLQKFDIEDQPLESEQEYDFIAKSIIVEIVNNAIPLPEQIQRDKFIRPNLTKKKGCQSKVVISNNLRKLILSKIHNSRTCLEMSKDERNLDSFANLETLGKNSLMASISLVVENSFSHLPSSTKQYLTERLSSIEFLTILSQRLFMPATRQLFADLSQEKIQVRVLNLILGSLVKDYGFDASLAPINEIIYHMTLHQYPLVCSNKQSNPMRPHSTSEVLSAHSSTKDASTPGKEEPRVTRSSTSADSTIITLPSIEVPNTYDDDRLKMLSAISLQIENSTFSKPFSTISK
Assay: PBM E-score (8-mer binding enrichment) (E-score (-0.5 to 0.5)); higher = stronger / more preferred TF binding; most listed sequences are background and not binding sites
Settings: protein concentration: 200 nM; construct: GST-full length
Description: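 Universal 'all 10-mer' protein binding microarrays (Agilent AMADID 015681) probed with GST-tagged S. cerevisiae TFs (full-length or DBD) made by in vitro transcription/translation (PURExpress), about 100-200 nM. Bound TF was detected with fluorescent anti-GST. Each ungapped 8-mer (which stands for itself and its reverse complement) is scored by the PBM enrichment score (E-score), a modified Wilcoxon-Mann-Whitney statistic from -0.5 to +0.5, computed with the Universal PBM Analysis Suite. Scale: above 0.35 generally sequence-specific binding.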

Sequence	PBM E-score
GGGGATCA	-0.142
AAAGTCCC	-0.235
CAAAGCAC	0.0195
CTGTCTTC	0.0916
ACTTCGGG	-0.0277
CCAATTGC	-0.288
GGGCTTGA	0.0139
ACACAGGG	-0.0982
AACCTGAA	-0.037
CATGGCAA	-0.056
TGCTGTAA	0.0257
CCAACTAG	0.058
TTCAACAA	0.0961
GCCGAACA	-0.137
AAATTATT	0.126
CCCGAATA	-0.225
AAGTAGAC	0.048
CATAGTGG	-0.088
AGAAGCAG	-0.1
ACAAGGTG	0.0291
GACGAGGA	0.00926
AGCCGTGG	-0.149
CTCTGGTA	0.0753
AGATCGTC	-0.175
TATCGCGA	0.0847

Sequence	PBM E-score
ACCAACTG	-0.097
AGGCCGAA	-0.147
GACATTAC	-0.0177
ATGATGAA	0.226
GGCGATAA	-0.181
CACATCCC	0.017
ATTTAGCC	0.213
CCATTTAC	-0.0793
ACCACTAT	-0.0491
AAAGAGGT	0.0563
ACCCAGCG	-0.126
ACTGAGGA	0.11
AAGGGATT	-0.1
ATTTTGAA	0.0946
GACTCAAC	0.472
CTTGCATA	-0.042
AGCAGATA	-0.0243
GATACAAC	0.0626
ATTTACGG	0.0752
TGCATGAA	0.0564
CCACTAAC	0.105
CACCGTCG	-0.089
GGCCCTTA	-0.258
ACGTAATA	0.0231
GCAACTCA	0.0988

Sequence	PBM E-score
AGGGTTCC	-0.147
ACAATAAC	0.0906
CCGGCGAC	0.0303
CTGAAGCA	-0.0178
ACAAAAGG	-0.252
CTACCCAG	-0.117
CCGCATCC	-0.211
TAGCCTGA	0.146
CACTTAGG	0.0181
ATTATAGA	0.173
CAGGGGAG	-0.108
CTCTTCGC	-0.0242
CGGTTACG	-0.00321
ACTTGCCA	-0.0758
CTCATAGC	0.136
ATGTGAGG	-0.00401
AGGGGGAT	-0.373
GAATTTTA	0.0356
ACTAGAAC	0.0195
ATTTATTC	0.178
GATCGATA	-0.0109
GGTACATA	-0.0874
GAAAACGC	-0.224
CCACAGAA	-0.00862
AATCGCAC	0.0476

Sequence	PBM E-score
AACACGAT	0.0177
ATTGGGTA	-0.138
GTTTATCA	0.172
ACGCGTTA	-0.0792
ACGAGTTG	-0.0661
GGAATGCA	-0.285
AGAGACTG	0.0785
AGTTAGAT	0.122
ACTCGCCA	0.0822
ACCGAGCA	-0.0642
ATCACCGC	0.187
AACCTCGG	-0.0239
GGTTAGAC	0.0853
CTTAGAAA	-0.018
CGCGCGGA	0.0985
CTCGCCTC	-0.326
CTGGATAC	-0.141
CTGCTCGC	-0.0973
ATTCTGCC	-0.135
AAGTTCTG	0.0281
TAGCAGGA	-0.106
AATAGAAG	0.0254
CAGAGACC	-0.0889
GGGCGAAA	-0.103
CACGAACC	-0.164

Sequence	PBM E-score
AACATGAT	0.335
AAACACAC	0.0803
TAATCCTA	0.0784
AAGCGATC	-0.1
ACCTACAT	-0.194
GGGGCTAC	-0.0498
ACGGTACT	-0.0665
GGATAGAC	0.0932
CGCAAGAG	0.0483
GATAGGAC	-0.0209
CATCAACG	0.0798
ACATCACT	-0.0672
GGGTTAGA	-0.119
ACGACATG	-0.0453
TGGTACCA	-0.329
CAGCAATC	0.0201
CTATTCAC	-0.0554
AAAACCCG	-0.37
CAAGAAGA	0.152
AAGAGTGT	0.0229
CAAAAACC	0.0426
GCATTACA	-0.0842
GCTGGGGA	-0.262
CTCGCACA	-0.021
CTGACAGC	-0.214

Sequence	PBM E-score
CCAAAGTC	0.23
CGTTTTGC	-0.134
GGCTGGAA	-0.0188
ATGTGTCC	0.0701
AACTAAGT	0.246
CGTGAGAG	-0.255
GGCCAAGA	-0.016
CCTTCACG	-0.0437
CCCTGCAG	-0.106
CTCGATGC	-0.0842
GGCTACTA	0.0101
ACGATCAT	0.125
CATCCCAA	-0.00075
CAGACAGA	-0.0203
GGTACGAC	0.0767
GCACTCCA	-0.145
ACTTTCAG	-0.0592
CACTCCGC	-0.0571
GCCGAGAC	-0.00523
CATATCTC	-0.0513
AAGTACGT	0.115
CGGGATCA	-0.213
ATCGCTTG	-0.0176
AGCCCAAT	-0.133
ACGAATGC	0.0107

Sequence	PBM E-score
GTCGGCAC	-0.0765
CCACTGGG	-0.0826
CCTTTGTA	-0.0346
AGGCAATC	0.138
ACTTTTCA	-0.00764
AAAATAAC	0.0567
AGCACACG	-0.0785
CACGTGAA	-0.0684
CGCCGAAA	-0.059
CGGACATC	-0.359
TATGGAAA	-0.0802
CCTACTAG	0.159
CAGGATCA	-0.0136
CAGGGTAA	0.153
AGTGGATC	-0.0836
ATATGGCG	-0.193
GGTCAAGA	-0.0401
CGCGGACC	-0.262
ATATCTCC	-0.144
GTGAAGAA	0.0288
ATGGACAG	-0.115
AGGTGCAA	-0.0491

— the supplement of paper PMC3334620
